In the supplement of paper PMC10126150:
Sequences with one replicate were seen in a single cluster, so their values are uncertain.

Test system: ATP
Experiment: switch fluorescence ratio, 500 uM ATP over buffer (Cy3 cluster intensity, sum of 5 cycles each) (fold (ratio)); higher = stronger signal-on switching upon ATP binding; sequences stand for … in TCGTCGGCAGCGTCAGATGTGTATAAGAGACAGTTTTTTTTTTTTTTTTTTTTTTTTT…TC
Conditions: aptamer strand: ATP DNA aptamer (quencher-CACCTGGGGGAGTATTGCGGAGGAAGG + anchor), 100 nM annealed; ATP concentration: 500 uM; one replicate
In short: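 Cy3-labelled switching-strand clusters on a modified Illumina MiSeq flow-cell were annealed to 100 nM quencher-labelled ATP aptamer, imaged in selection buffer, then imaged after 15 min with 500 uM ATP at 22 °C. Five buffer/ATP cycles ran, with NaOH stripping and re-annealing between them. The fluorescence ratio is summed target-cycle over summed buffer-cycle Cy3 intensity per cluster, averaged per switch-domain sequence. Clusters outside 100-1000 RFU were excluded.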
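Also: ATP exposure 15 min at 22 °C before imaging.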

Row | Sequence | switch fluorescence ratio
1 | CCGGAAGGTT | 1.05
2 | CGTGTAAGCG | 1.02
3 | TACAAAGCGG | 1.03
4 | AGTCTGCCCG | 1.15
5 | TACCTAGTAT | 0.977
6 | TCAATGCCCA | 1
7 | AACTGTCCTA | 1.03
8 | GCATGCTTGA | 1.01
9 | GGAAACAGGT | 1.05
10 | GGTTACGGAC | 1.37
11 | ATGTTTAGTG | 0.95
12 | CCGTTTCCAT | 0.996
13 | CGGTGAATTA | 0.957
14 | TAAGTGATGA | 0.986
15 | TCTTGCGCAT | 1.86
16 | CGTTACCGAG | 1.02
17 | CGAACGGCCG | 1.03
18 | TGTGGTGATG | 1.38
19 | TGTGTCCAGC | 1.05
20 | ACCCGTTTAT | 1
21 | CTTATATGCA | 1.09
22 | AATTAGGGT | 0.963
23 | GACGGGTTAT | 0.992

Row | Sequence | switch fluorescence ratio
24 | TCGACCCGT | 1.05
25 | CTGGGTAATC | 1.18
26 | TTCCTTCAGT | 2.29
27 | AGGTGGCGGT | 1.01
28 | TACATGTATT | 1.03
29 | GCAGAGCGAT | 1.09
30 | AGTGTGGG | 1.01
31 | GAAGCGGGGA | 0.992
32 | ATAGTTGTTG | 1.01
33 | ATCTGGTGCG | 1.05
34 | CATTACTAAA | 1.02
35 | ACTCAGATAG | 1.06
36 | GAATGACGGG | 1.01
37 | TCTTTTATTG | 1
38 | TCCCAGGGGA | 3.11
39 | CTCCGTCAAC | 3
40 | GCTCGATATC | 1.12
41 | TAGTTTCGAC | 0.993
42 | AATAGTCTCG | 1.01
43 | AAACCTGTTG | 1.14
44 | CGTCTTTCTA | 0.97
45 | CTTATCGATG | 0.951
46 | ACCAGGAGAA | 1.04

Row | Sequence | switch fluorescence ratio
47 | GCAATGAAGT | 1.03
48 | GCGTTTTTAA | 0.962
49 | GGTCTACGGG | 1
50 | CGCAGTTAAC | 2.2
51 | CCGGTAGTTT | 1.04
52 | TAAGTGCGTC | 1.04
53 | TTACGGCATT | 1.11
54 | CCAGCGCTCA | 1.37
55 | TTCCGTACAT | 1.13
56 | GGGTGCAGTC | 0.926
57 | ACCCGGGATG | 6.75
58 | TTTTGGGACA | 1.01
59 | ATGCCATATC | 0.997
60 | TTGTAAAAAA | 1.04
61 | CAAGAAAACA | 1.03
62 | CAGCTCATTG | 1.03
63 | CACCTACACT | 0.977
64 | AAAAAGAGGC | 1.03
65 | TCAATTAAAA | 1
66 | CGGAAAGCTT | 1.09
67 | TCCCCTGTG | 2.74
68 | CTCAAGTAGC | 1.06
69 | TCAACGGCTT | 1.01

Row | Sequence | switch fluorescence ratio
70 | CGGTGACCCT | 1.03
71 | ATAACCTCTG | 1.04
72 | TGAGACGAGT | 1.02
73 | AGTGTCTCTA | 0.978
74 | CATTTGGCTA | 1.4
75 | TGGTTTATTA | 1.03
76 | CCGGGGCCCC | 0.991
77 | GCCAGCGTGA | 1.19
78 | CTCTCTAAAG | 0.982
79 | TGAGTTAATC | 1
80 | TCGAAGTTTG | 1.05
81 | ATCTGAGGGT | 0.976
82 | GCTTTTAGA | 1.03
83 | GGAGATCGG | 1.03
84 | TGGGTGGCTA | 1
85 | CGGTGCTCCG | 1.03
86 | ATATGTGTG | 0.908
87 | GATTGACAG | 1.03
88 | TGCGCTTTCT | 1.06
89 | TCCCCTTCT | 1.04
90 | GCGTCGTTGA | 1.01
91 | AATGGCAAGG | 0.954
92 | TAGACAGATT | 0.964

Row | Sequence | switch fluorescence ratio
93 | GCATCTTTTA | 1.02
94 | GGATTTGACT | 0.989
95 | CACTCTATGG | 1.07
96 | CACCTATACC | 1.18
97 | CGGTGTCTGA | 1.02
98 | TCCAGGGAGC | 1.04
99 | GGGTACCGGT | 0.997
100 | CTACTATT | 0.985
101 | TATGGAGCTA | 1.21
102 | CCTAGCCAAC | 3.31
103 | TTCACAGGGC | 1.06
104 | GACAATAGTT | 1.04
105 | CCGCGATGGC | 2.23
106 | TTGTACCTG | 1
107 | CGTAGATACG | 0.992
108 | CGCGCGAGAT | 0.992
109 | TCTCTAAATC | 2.23
110 | CGGTCTTCTC | 0.999
111 | CTGCCGTTCA | 1.04
112 | GGTCACTTAG | 1.02
113 | CATACCAGCA | 1.04
114 | TGGGTTGGT | 1.02
115 | CAATTGGTC | 0.95

Row | Sequence | switch fluorescence ratio
116 | ATTACTATTT | 1.03
117 | GGTGGAAAGA | 0.982
118 | GGCGGAGGCT | 0.971
119 | TTCCCGGTTT | 0.988
120 | ACGCGGCGCC | 1.04
121 | ATCAACGGAG | 1.01
122 | ATGCCGCGAT | 1.08
123 | ATCGACAGAT | 1.01
124 | TAAATATGAG | 1.04
125 | CCGGTATAGT | 1.36
126 | TTAGCTTGTT | 0.961
127 | GAACTATTAT | 1.01
128 | CTCGTCGTAC | 1.48
129 | CTATGATATA | 1.01
130 | GCTGATCCGG | 1.01
131 | ACCACAAGTA | 1.02
132 | GATGGAAAAT | 1.04
133 | TCAGCCGTCA | 0.95
134 | GTGCGGGCAA | 0.988
135 | TGAATAACAC | 1.06
136 | CACGGCGTTA | 1.02
137 | CATCTAAACG | 0.994
138 | CGAGGGGCGG | 0.952

Row | Sequence | switch fluorescence ratio
139 | CAGGTGTATT | 1.53
140 | AGGGAGCGTG | 0.965
141 | ACTGTGGGT | 1.01
142 | CGAGGTACAG | 1.03
143 | GATTTCTCCA | 1.07
144 | AACTTCTGTA | 1.01
145 | AGCGCTTATT | 1.01
146 | AAAAAGTAGA | 1.05
147 | TCTTGAATTG | 0.97
148 | CTGGATACCT | 1.29
149 | GCTTAAAGTA | 1
150 | TTACGCGGGG | 1.05
151 | CTGAACTCGC | 1.48
152 | CAATGGAGTC | 0.969
153 | GCTGCTAGCG | 1.04
154 | TTAGCCGGTT | 1.16
155 | ACAAAACCGA | 1.28
156 | ACTTAGGATC | 1.07
157 | TTCTCAGACA | 0.983
